# Test results published in the supplement of paper PMC3334620.
# Whole data set: some 33,000 sequences, median “E-score (-0.5 to 0.5)” near -0.01, cut for the highest 2% near 0.26. The list shows a part of the results.
# Biological target: Ste12 (UniProt P13574)
# Assay: PBM E-score (8-mer binding enrichment) (E-score (-0.5 to 0.5)); higher = stronger / more preferred TF binding; most listed sequences are background and not binding sites
# Settings: protein concentration: 200 nM; construct: GST-DNA-binding domain
# Description: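 Universal 'all 10-mer' protein binding microarrays (Agilent AMADID 015681) probed with GST-tagged S. cerevisiae TFs (full-length or DBD) made by in vitro transcription/translation (PURExpress), about 100-200 nM. Bound TF was detected with fluorescent anti-GST. Each ungapped 8-mer (which stands for itself and its reverse complement) is scored by the PBM enrichment score (E-score), a modified Wilcoxon-Mann-Whitney statistic from -0.5 to +0.5, computed with the Universal PBM Analysis Suite. Scale: above 0.35 generally sequence-specific binding.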
row,Sequence,PBM E-score
1,AAGGCAGC,-0.105
2,ACATATTG,0.0438
3,TACGAAGA,-0.0985
4,AGCTTACT,-0.142
5,CGTCAACA,-0.096
6,AGCTTAGA,0.00955
7,AGGTGATA,0.0763
8,CAAGAGTG,0.00953
9,ACCCAAAG,-0.0486
10,GTGTAGCA,-0.0978
11,CCTGCTTC,-0.104
12,CATATGCA,0.00871
13,GGAAGGCC,-0.0691
14,GTGCAAAC,0.00957
15,CGGGAGCC,-0.031
16,CCTGTCCG,-0.117
17,ATCGACTG,-0.0465
18,TATTTACA,0.101
19,CTCCCCCC,-0.249
20,AGCTCTTC,-0.136
21,GAAGTCAC,-0.104
22,CTCTCAAG,-0.0939
23,ATTGTGCA,-0.0612
24,CATAATGA,0.0657
25,GGGCCCGA,-0.00104

row,Sequence,PBM E-score
1,ATTCGGAG,-0.0606
2,CCTTGTAG,-0.135
3,CGATGGTC,-0.166
4,ATCAATCG,0.0564
5,AGGCACCC,-0.109
6,CCGGGCAC,-0.0505
7,CAGCAACA,0.0784
8,ATCCGCAA,0.025
9,AACGTAGA,-0.00253
10,CTCTTGCC,-0.0697
11,CAACTCCG,-0.0235
12,AGCTAAGC,-0.234
13,AACGGGTG,0.127
14,ACCCGCTG,-0.262
15,CCCCGGCG,-0.0535
16,CTCCGACC,0.0614
17,AACACTCC,0.0877
18,AAAGCTCC,-0.18
19,ACTAGATG,0.0624
20,CGGTGTCA,-0.0214
21,GAATGAAA,0.322
22,CTTATAAG,0.0485
23,AATTTGTC,0.134
24,ATGCTCTA,-0.0781
25,TATAAGAA,0.0401

row,Sequence,PBM E-score
1,CGGGTGAG,-0.051
2,TCCGACAA,-0.0026
3,CCTGCCAC,0.00798
4,CTTTTCGC,0.204
5,TCAAAACA,0.209
6,GATGGGAC,0.00042
7,GATGTAAC,0.0711
8,ATTCGTTG,0.0917
9,CATTCGAA,0.11
10,ATGGTCTG,0.0287
11,ATGCCGTC,-0.0726
12,GCTTAATA,0.166
13,GCTTACCC,-0.168
14,ATATTTCG,0.178
15,AAGTATGC,-0.197
16,AAACGGGC,0.0947
17,TCACTCAA,-0.0929
18,AGTAGTCG,-0.0275
19,ATTCAAAC,0.279
20,ACGGGAGA,-0.127
21,ACAGGTTA,-0.0944
22,CCCAACCA,0.0418
23,CCTTGCAA,-0.0217
24,GCTGTGAA,-0.0834
25,TGCGTAAA,0.0161

row,Sequence,PBM E-score
1,TATGCTCA,-0.0338
2,ATGTCCAA,-0.00661
3,CCCAAGGG,-0.239
4,GTGACGAA,0.0546
5,ACCGGGAC,0.122
6,AATAAGAG,0.0566
7,ATAGTTGG,0.0718
8,AGTCCGAA,0.0359
9,AATTTTAT,0.217
10,CACCATTC,0.0486
11,ACCAATGA,0.133
12,AGGAGTAC,-0.268
13,CCGTAGAG,-0.26
14,CGCTAAAC,-0.237
15,CAGTAAGC,-0.091
16,ATGCCCAG,-0.148
17,GCCGAAGC,-0.0613
18,AGGTGCCG,-0.0417
19,CCCCACCG,0.137
20,GATATTGC,0.0418
21,CGGGCATC,-0.17
22,GATAATAA,0.21
23,CGGAAGTA,0.00464
24,GCGAAGAC,-0.141
25,CGTTCTTC,-0.0393

row,Sequence,PBM E-score
1,GAAAACCC,0.073
2,AGCCCCAG,-0.158
3,AATGAGCA,-0.0226
4,AATTCATC,-0.216
5,GTTCACCA,-0.0697
6,ATGTTCTA,0.0169
7,AAACTTGC,0.0912
8,ACCTCCCA,-0.187
9,AGCGGTCG,-0.372
10,ATACGTCA,0.101
11,GACGACGC,0.0116
12,CGTGTCAC,0.0622
13,ATCGGCCA,-0.147
14,ACCAGCCA,-0.0724
15,CACGTACC,-0.125
16,AAAGGTGT,-0.0487
17,CAGGACTC,-0.189
18,CCCCAGAG,-0.184
19,ACCCACTC,-0.113
20,AATTGACT,0.0169
21,CCTTATTA,0.187
22,AAGGCATT,-0.3
23,CTAGCTGC,-0.213
24,CAAGTTTC,0.254
25,ACCATGCT,-0.145

row,Sequence,PBM E-score
1,CCGTCGGA,0.0057
2,GACCAATA,0.0262
3,AGTGCCAT,-0.185
4,GCACTAGC,-0.124
5,CCGCCCTC,-0.012
6,GGCTGCTA,-0.037
7,TCCATTCA,-0.00786
8,CAACTCGG,-0.012
9,AGAGCAGC,-0.00353
10,GACTGACC,-0.216
11,ACCCACAA,0.144
12,AATAAGTG,0.0656
13,AGCTTCTA,-0.129
14,ACACATCT,0.0076
15,CCCACTAA,0.126
16,AAGGTCGG,0.0198
17,TAAAATGA,0.258
18,CCAGTGGC,-0.0455
19,CTATTACC,-0.0928
20,ACGGGTAC,-0.139
21,GGGCTGAC,-0.0565
22,AAGTAGAG,-0.0406
23,CGTTCGAC,-0.223
24,ACCGACTC,0.00135
25,ATGACCCC,-0.0449

row,Sequence,PBM E-score
1,AGAAATGA,0.14
2,TACCAGAA,0.253
3,TGCATGCA,-0.0454
4,AGCTCGTA,-0.238
5,ATCGTCTC,-0.0664
6,ACTACTAC,-0.102
7,AAATGGCT,0.0795
8,ATTCAATG,0.101
9,AAGGTTAC,-0.0772
10,GCTTTCCC,0.0308
11,CTTGTACC,0.0204
12,CGGGTGTA,0.0799
13,TACAGCGA,-0.043
14,ATGACGCA,-0.0139
15,CTCAACGA,-0.137
16,ATGGGAGG,0.186
17,GCCCGGCA,-0.107
18,CCCTAGCC,0.0466
19,CTTTAGGC,-0.187
20,ACGTACAA,-0.0607
21,CGTGGCAC,-0.0646
22,CAGAGTCC,-0.0474
